Positions count from the first letter of the chain named. The list shows a part of the results.

Sequences and labels used below:
T1: RBFOX1 RRM RbFoxmut (Fox-RRM*) (Homo sapiens, UniProt Q9NWB1 109-208, R118D;E147R;N151S;E152T)
T1 sequence: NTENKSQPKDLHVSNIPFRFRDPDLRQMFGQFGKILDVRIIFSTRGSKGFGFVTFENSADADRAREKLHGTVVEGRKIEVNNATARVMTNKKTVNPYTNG

B1: CACUGGU (DNA:RNA)
RNA: GGGAGACCGGAAUUCAGAUUGUCCCACUGGUUUAAAUCCCGUCGUAGCCACCA
DNA 1: CAATCTGAATTCCGGTCTCCC
DNA 2: TGGTGGCTACGACGGGATT
B2: GUCUGUU (DNA:RNA)
RNA: B1 RNA with C25G, A26U, G30U
DNA 1: CAATCTGAATTCCGGTCTCCC
DNA 2: TGGTGGCTACGACGGGATT
B3: AGAACCG (DNA:RNA)
RNA: GGGAGACCGGAAUUCAGAUUGUCCAGAACCGUUAAAUCCCGUCGUAGCCACCA
DNA 1: CAATCTGAATTCCGGTCTCCC
DNA 2: TGGTGGCTACGACGGGATT
B4: UACAAGU (DNA:RNA)
RNA: B1 RNA with C25U, U28A, G29A
DNA 1: CAATCTGAATTCCGGTCTCCC
DNA 2: TGGTGGCTACGACGGGATT
B5: GAGAUAG (DNA:RNA)
RNA: B3 RNA with A25G, G26A, A27G, C29U, C30A
DNA 1: CAATCTGAATTCCGGTCTCCC
DNA 2: TGGTGGCTACGACGGGATT
B6: AGGAUUU (DNA:RNA)
RNA: B3 RNA with A27G, C29U, C30U, G31U
DNA 1: CAATCTGAATTCCGGTCTCCC
DNA 2: TGGTGGCTACGACGGGATT
B7: CUGAGAU (DNA:RNA)
RNA: B1 RNA with A26U, C27G, U28A, G30A
DNA 1: CAATCTGAATTCCGGTCTCCC
DNA 2: TGGTGGCTACGACGGGATT
B8: GAGGGGG (DNA:RNA)
RNA: B1 RNA with C25G, C27G, U28G, U31G
DNA 1: CAATCTGAATTCCGGTCTCCC
DNA 2: TGGTGGCTACGACGGGATT
B9: CAGCAGA (DNA:RNA)
RNA: B1 RNA with C27G, U28C, G29A, U31A
DNA 1: CAATCTGAATTCCGGTCTCCC
DNA 2: TGGTGGCTACGACGGGATT
B10: UUUUACA (DNA:RNA)
RNA: B3 RNA with A25U, G26U, A27U, A28U, C29A, G31A
DNA 1: CAATCTGAATTCCGGTCTCCC
DNA 2: TGGTGGCTACGACGGGATT
B11: CCGGCUG (DNA:RNA)
RNA: B3 RNA with A25C, G26C, A27G, A28G, C30U
DNA 1: CAATCTGAATTCCGGTCTCCC
DNA 2: TGGTGGCTACGACGGGATT
B12: CCCAAAG (DNA:RNA)
RNA: B3 RNA with A25C, G26C, A27C, C29A, C30A
DNA 1: CAATCTGAATTCCGGTCTCCC
DNA 2: TGGTGGCTACGACGGGATT
B13: UCGAUUG (DNA:RNA)
RNA: B3 RNA with A25U, G26C, A27G, C29U, C30U
DNA 1: CAATCTGAATTCCGGTCTCCC
DNA 2: TGGTGGCTACGACGGGATT
B14: UACGAAU (DNA:RNA)
RNA: B1 RNA with C25U, U28G, G29A, G30A
DNA 1: CAATCTGAATTCCGGTCTCCC
DNA 2: TGGTGGCTACGACGGGATT
B15: CUUCUCC (DNA:RNA)
RNA: B3 RNA with A25C, G26U, A27U, A28C, C29U, G31C
DNA 1: CAATCTGAATTCCGGTCTCCC
DNA 2: TGGTGGCTACGACGGGATT
B16: UGCCGAC (DNA:RNA)
RNA: B1 RNA with C25U, A26G, U28C, G30A, U31C
DNA 1: CAATCTGAATTCCGGTCTCCC
DNA 2: TGGTGGCTACGACGGGATT
B17: UAUGUGC (DNA:RNA)
RNA: B1 RNA with C25U, C27U, U28G, G29U, U31C
DNA 1: CAATCTGAATTCCGGTCTCCC
DNA 2: TGGTGGCTACGACGGGATT
B18: UCACCGC (DNA:RNA)
RNA: B3 RNA with A25U, G26C, A28C, C30G, G31C
DNA 1: CAATCTGAATTCCGGTCTCCC
DNA 2: TGGTGGCTACGACGGGATT
B19: CCGAAUU (DNA:RNA)
RNA: B1 RNA with A26C, C27G, U28A, G29A, G30U
DNA 1: CAATCTGAATTCCGGTCTCCC
DNA 2: TGGTGGCTACGACGGGATT
B20: UGGUCAG (DNA:RNA)
RNA: B3 RNA with A25U, A27G, A28U, C30A
DNA 1: CAATCTGAATTCCGGTCTCCC
DNA 2: TGGTGGCTACGACGGGATT

The target of this experiment is T1, RBFOX1 RRM RbFoxmut (Fox-RRM*). Description: EMSA; HiTS-Eq, 1 nM pool, 10 min; buffer printed only for the single-RNA assays: 10 mM Tris pH 7.5, 150 mM NaCl, 3.4 mM EDTA, 0.001% NP-40, 30 C. To be noted: tags: His6 N-terminal (pET28a); label: 5' 32P. The gist of the method: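 A pool of RNA with 7 randomized nucleotides, 5′-radiolabelled and with DNA-annealed flanks, was equilibrated at 1 nM for 10 min in 50 µL with purified RbFox RRM, wild type or mutant, across increasing protein concentrations. Free RNA was separated by 8% native PAGE, excised, reverse-transcribed, barcoded by PCR and sequenced. Relative association constants were obtained from read-count changes of each RNA species versus the control reaction and normalised to the cognate motif.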
A general note: In EMSA bound probe runs differently from free probe, usually more slowly.
For B1, the binding signal is 0.12 KA relative to UGCAUGU.
With B2, the binding signal was 0.13 KA relative to UGCAUGU.
Turning to B3, the binding signal is 0.108 KA relative to UGCAUGU.
For B4 the value was 0.0549 KA relative to UGCAUGU.
In the case of B5, the binding signal was 0.119 KA relative to UGCAUGU.
As to B6, the binding signal was 0.105 KA relative to UGCAUGU.
Take B7: the binding signal was 0.0744 KA relative to UGCAUGU.
Take B8: the binding signal was 0.0771 KA relative to UGCAUGU.
For B9, the binding signal is 0.115 KA relative to UGCAUGU.
With B10, the binding signal is 0.103 KA relative to UGCAUGU.
As to B11, the binding signal was 0.153 KA relative to UGCAUGU.
For the molecule B12, the binding signal is 0.106 KA relative to UGCAUGU.
Regarding B13, the binding signal was 0.239 KA relative to UGCAUGU.
Regarding B14, the binding signal is 0.0952 KA relative to UGCAUGU.
In the case of B15, the binding signal is 0.0662 KA relative to UGCAUGU.
Take B16: the binding signal was 0.102 KA relative to UGCAUGU.
As to B17, the binding signal is 0.131 KA relative to UGCAUGU.
For the molecule B18, the binding signal is 0.135 KA relative to UGCAUGU.
Consider B19, for which the binding signal is 0.0591 KA relative to UGCAUGU.
Take B20: the binding signal was 0.119 KA relative to UGCAUGU.

The record behind these values is paper PMC9911399, “Two distinct binding modes provide the RNA-binding protein RbFox with extraordinary sequence specificity”.
